# The campaign covered roughly 410,000 compounds. About 1,200 (0.29%) were called active. Inconclusive results, whose numbers are uncertain, are shown with a selection of clear calls. Calls follow the shape of the dose curve; as a rule, active = well fitted activation curve with a large enough effect; inconclusive = small, poorly fitted or top-dose-only effect; inactive = flat fitted curve, though single readings scatter. A potency beside an inconclusive call is a rough fit, not a confirmed value.
# Assay: qHTS of Nrf2 Activators; also: nearly all actives have a fitted effect of over 65% in size
# Settings: AREc32 ARE-luciferase reporter (MCF7-derived line), luminescence, 24 h; series mostly up to 46.1 µM
# Outline: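 Each well held 1000 AREc32 cells, which were incubated with compound for 24 hr at 37 deg C after overnight attachment, and ARE reporter activity was quantified by firefly luciferase luminescence.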
# Potency is read from the fitted curve at half-maximal effect; tags tell the direction and shape of the fitted curve.
row,Compound,Potency
1,Cc1[nH]nc2c1C(C1CC=CCC1)C(C#N)=C(N)O2 (stereo unspecified),"inconclusive: 31.6 µM [activator, single point]"
2,O=C(/C=C/c1c(Cl)cccc1Cl)n1cccn1,"inconclusive: 25.1 µM [activator, partial curve, poor fit]"
3,Cc1cccc2sc(NC(=O)c3ccc(Cl)s3)nc12,active: 7.08 µM
4,CCS(=O)(=O)c1nc(S(=O)(=O)c2ccc(Cl)cc2)c(N2CCC3(CC2)OCCO3)s1,active: 11.2 µM
5,c1ccc2c(c1)nc(N1CCCCCC1)c1nncn12,inactive
6,Cn1nnnc1Sc1ncnc2scc(-c3ccccc3Br)c12,"inconclusive: 1.26 µM [activator, partial curve, poor fit]"
7,Nc1ccc(C(=O)c2cccs2)cn1,"inconclusive: 15.8 µM [activator, single point]"
8,CCn1cc([N+](=O)[O-])c(C(=O)Nc2nc(-c3ccc(C)c(C)c3)c(C)s2)n1,"inconclusive: 25.1 µM [activator, single point]"
9,Cc1cc(C)c2oc(-c3ccc(Cl)c(NC(=O)c4cccs4)c3)nc2c1,"inconclusive: 1.41 µM [activator, full curve]"
10,COc1ccc(Cl)cc1N(C(=O)c1ccco1)C(C(=O)NC1CCCC1)c1ccco1 (stereo unspecified),"inconclusive: 17.8 µM [activator, single point]"
11,COC(=O)c1sccc1NC(=O)c1cccc(Cl)c1,active: 8.91 µM
12,COc1ccccc1NC(=O)c1cnc(SCC(=O)N2CCOCC2)n(C)c1=O,"inconclusive: 6.31 µM [activator, partial curve, poor fit]"
13,C=C(C)CNC(=S)N/N=C/c1ccco1,active: 11.2 µM
14,CC(C)N(CC(=O)Nc1ccc(Cl)cc1C(F)(F)F)C(=O)CCl,"inconclusive: 11.2 µM [activator, partial curve, poor fit]"
15,CS(=O)(=O)c1ccc(Cl)c(NC(=O)CCl)c1,"inconclusive: 11.2 µM [activator, partial curve, poor fit]"
16,CCOC(=O)C(=CNc1nc(-c2ccccc2)c(C(=O)Nc2ccc(-c3ccccc3)cc2)s1)C(=O)OCC,inactive
17,O=C(/C=C/c1ccc(OC2CSC2)cc1)c1ccccc1,"inconclusive: 25.1 µM [activator, single point]"
18,COc1cccc2cc(C(=O)Nc3cccc(C)n3)c(=O)oc12,"inconclusive: 10 µM [activator, partial curve, poor fit]"
19,CCOC(=O)C(CC)Sc1c(CC)cnc2c1c(=O)n(C)c(=O)n2C (stereo unspecified),inactive
20,O=C(Nc1cccc2cccnc12)c1cccc([N+](=O)[O-])c1,"inconclusive: 22.4 µM [activator, single point]"
21,Cc1cc(=O)oc2cc(OCC(=O)OC(C)C(=O)Nc3ccc(S(N)(=O)=O)cc3)ccc12 (stereo unspecified),inactive
22,Cc1cc(=O)oc2c(C(=O)/C=C\c3cccs3)c(O)ccc12,"inconclusive: 10 µM [activator, partial curve, poor fit]"
23,Cc1ccc(-n2c(C(C)C)nc3oc4ccccc4c(=O)c3c2=O)cc1,"inconclusive: 12.6 µM [activator, partial curve]"

row,Compound,Potency
1,O=C(c1cc2ccccc2oc1=O)N(c1ccccc1)C1C=CS(=O)(=O)C1 (stereo unspecified),"inconclusive: 7.08 µM [activator, partial curve, poor fit]"
2,Clc1cccc(-c2ccnc3nc(-n4cccc4)nn23)c1,"inconclusive: 12.6 µM [activator, partial curve, poor fit]"
3,COc1ccccc1C(=O)Nc1ccc(C(=O)OCc2cc(=O)n3nc(C)sc3n2)cc1,inactive
4,COCCn1c(C)cc(C(=O)COC(=O)c2ccc([N+](=O)[O-])o2)c1C,"inconclusive: 15.8 µM [activator, single point]"
5,COC1C(CO)OC(n2c3c(Cl)cccc3c3c4c(c5c6cccc(Cl)c6[nH]c5c32)C(=O)NC4=O)C(O)C1O (stereo unspecified),inactive
6,Cc1cccc(NC(=O)c2sc3nc(N)c(C#N)cc3c2N)c1,inactive
7,Brc1cccc(-c2nnc(-c3ccccc3)o2)c1,active: 3.16 µM
8,C/C(=N\NC(=O)COc1ccccc1[N+](=O)[O-])c1cccs1,active: 8.91 µM
9,CC(=Nc1cccc(C)c1)c1sc2ccccc2c1O,"inconclusive: 11.2 µM [activator, partial curve]"
10,COc1ccc(C2=NN(C(=O)CSc3nnc(C)n3C)C(c3ccco3)C2)cc1 (stereo unspecified),inactive
11,Cc1ccc(/C(O)=C/c2nc3ccccc3oc2=O)cc1,active: 12.6 µM
12,O=C(NC1CCCC1)C(c1ccncc1)N(Cc1ccccc1)C(=O)c1ccc(-c2ccccc2)[nH]1 (stereo unspecified),"inconclusive: 35.5 µM [activator, single point]"
13,Cc1ccc(NS(=O)(=O)c2ccc(-c3cc(C)no3)cc2)c(Br)c1,inactive
14,O=C(NNC(=S)NCc1ccccc1)c1ccc2c(c1)OCO2,inactive
15,N#C/C(=C(/O)c1cccs1)c1nc2ccccc2[nH]1,"inconclusive: 3.55 µM [activator, partial curve, poor fit]"
16,COc1ccc(-n2c(SC3CCOC3=O)nc3ccccc32)cc1 (stereo unspecified),inactive
17,Cc1ccc(O)c(NC(=O)c2onc(C)c2Cl)c1,active: 8.91 µM
18,OCCNc1c2ccccc2nc2c(F)c(F)c(F)c(F)c12,active: 11.2 µM
19,Cc1ccc(NC(=O)CC2S/C(=N/N=C/c3ccco3)NC2=O)cc1Cl (stereo unspecified),"inconclusive: 2.24 µM [activator, partial curve, poor fit]"
20,CS(=O)(=O)c1ccc(C(=O)Nc2nc(-c3ccco3)c(-c3ccco3)s2)cc1,"inconclusive: 12.6 µM [activator, partial curve]"
21,Cc1cc(=O)oc2cc(OCC(=O)OCC(=O)Nc3ccccc3F)ccc12,inactive
22,Cc1ccc(C(=O)NCc2ccco2)cc1Br,"inconclusive: 15.8 µM [activator, single point]"
23,CSC1=N/C(=C\c2cccc(Cl)c2)C(=O)N1N(C)C,"inconclusive: 17.8 µM [activator, partial curve, poor fit]"

# — PubChem BioAssay AID624171 (National Center for Advancing Translational Sciences (NCATS), 2012)
